# In the supplement of paper PMC8728848:
# Some of the results follow.
# B1: Microvirin-2 (Microcystis aeruginosa) (protein)
# chain: MPNFSHTCSSINYDPDSTILSAECQARDGEWLPTELRLSDHIGNIDGELQFGDQNFQETCQDCHLEFGDGEQSVWLVCTCQTMDGEWKSTQILLDSQIDNNDSQLEIGGSMPNFSHTCSSINYDPDSTILSAECQARDGEWLPTELRLSDHIGNIDGELQFGDQNFQETCQDCHLEFGDGEQSVWLVCTCQTMDGEWKSTQILLDSQIDNNDSQLEIG
# Assays:
# Test in all cases: glycan array binding signal (z-score within array); higher = stronger binding
# Details in all cases: glycan notation: IUPAC condensed, linker removed
# [1] = target: GlcNAc(b1-4)GlcNAc(b1-4)GlcNAc(b1-4)GlcNAc(b1-4)GlcNAc(b1-4)GlcNAc
# Outline: (§1)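 The binding signal is a Z-score computed within each array and averaged over linkers. Arrays of the same protein sequence at different concentrations or buffers were also averaged together. Data originate from 3228 arrays in the Consortium for Functional Glycomics database, kept only where the protein sequence was available.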
# [2] = target: GlcNAc(b1-4)[GlcNAc(b1-6)]GalNAc
# Outline: as §1
# [3] = target: GlcNAc(b1-6)Gal(b1-4)GlcNAc
# Outline: as §1
# [4] = target: GlcNAc(b1-6)GalNAc
# Outline: as §1
# [5] = target: GlcNAc6S(b1-3)Gal(b1-4)GlcNAc
# Outline: as §1
# [6] = target: Kdn(a2-3)Gal(b1-3)GalNAc
# Outline: as §1
# [7] = target: Kdn(a2-3)Gal(b1-3)GlcNAc
# Outline: as §1
# [8] = target: Kdn(a2-3)Gal(b1-4)Glc
# Outline: as §1
# [9] = target: Kdn(a2-3)Gal(b1-4)GlcNAc
# Outline: as §1
# [10] = target: Kdn(a2-3)Gal(b1-4)[Fuc(a1-3)]GlcNAc
# Outline: as §1
# [11] = target: Kdn(a2-6)Gal(b1-4)GlcNAc
# Outline: as §1
# [12] = target: Man(a1-2)Man(a1-2)Man(a1-3)Man
# Outline: as §1
# [13] = target: Man(a1-2)Man(a1-2)Man(a1-6)[Man(a1-3)]Man
# Outline: as §1
# [14] = target: Man(a1-2)Man(a1-3)Man
# Outline: as §1
# [15] = target: Man(a1-2)Man(a1-3)[Man(a1-2)Man(a1-6)]Man
# Outline: as §1
# [16] = target: Man(a1-2)Man(a1-3)[Man(a1-2)Man(a1-6)]Man(a1-6)[Man(a1-2)Man(a1-2)Man(a1-3)]Man
# Outline: as §1
# [17] = target: Man(a1-2)Man(a1-3)[Man(a1-2)Man(a1-6)]Man(a1-6)[Man(a1-2)Man(a1-2)Man(a1-3)]Man(b1-4)GlcNAc(b1-4)GlcNAc
# Outline: as §1
# [18] = target: Man(a1-2)Man(a1-3)[Man(a1-6)]Man(a1-6)[Man(a1-2)Man(a1-3)]Man(b1-4)GlcNAc(b1-4)GlcNAc
# Outline: as §1
# [19] = target: Man(a1-2)Man(a1-6)[Man(a1-3)]Man(a1-6)[Man(a1-2)Man(a1-2)Man(a1-3)]Man
# Outline: as §1
# [20] = target: Man(a1-2)Man(a1-6)[Man(a1-3)]Man(a1-6)[Man(a1-2)Man(a1-2)Man(a1-3)]Man(b1-4)GlcNAc(b1-4)GlcNAc
# Outline: as §1
# [21] = target: Man(a1-3)[Man(a1-6)]Man
# Outline: as §1
# [22] = target: Man(a1-3)[Man(a1-6)]Man(a1-6)[Man(a1-2)Man(a1-3)]Man(b1-4)GlcNAc(b1-4)GlcNAc
# Outline: as §1
# [23] = target: Man(a1-3)[Man(a1-6)]Man(a1-6)[Man(a1-3)]Man
# Outline: as §1
# [24] = target: Man(a1-3)[Man(a1-6)]Man(a1-6)[Man(a1-3)]Man(b1-4)GlcNAc(b1-4)GlcNAc
# Outline: as §1
# [25] = target: Man(a1-3)[Man(a1-6)]Man(b1-4)GlcNAc(b1-4)GlcNAc
# Outline: as §1
# [26] = target: Man(a1-3)[Man(a1-6)]Man(b1-4)GlcNAc(b1-4)[Fuc(a1-6)]GlcNAc
# Outline: as §1
# [27] = target: Man(a1-6)Man
# Outline: as §1
# [28] = target: Man(b1-4)GlcNAc
# Outline: as §1
# [29] = target: MurNAc(b1-4)GlcNAc
# Outline: as §1
# [30] = target: Neu5Ac(a2-3)Gal
# Outline: as §1
# [31] = target: Neu5Ac(a2-3)Gal(b1-3)GalNAc
# Outline: as §1
# [32] = target: Neu5Ac(a2-3)Gal(b1-3)GalNAc(b1-3)Gal(a1-4)Gal(b1-4)Glc
# Outline: as §1
# [33] = target: Neu5Ac(a2-3)Gal(b1-3)GalNAc(b1-4)[Neu5Ac(a2-3)]Gal(b1-4)Glc
# Outline: as §1
# [34] = target: Neu5Ac(a2-3)Gal(b1-3)GalNAc(b1-4)[Neu5Ac(a2-8)Neu5Ac(a2-3)]Gal(b1-4)Glc
# Outline: as §1
# [35] = target: Neu5Ac(a2-3)Gal(b1-3)GalNAc6S
# Outline: as §1
# [36] = target: Neu5Ac(a2-3)Gal(b1-3)GlcNAc
# Outline: as §1
# [37] = target: Neu5Ac(a2-3)Gal(b1-3)GlcNAc(b1-2)Man
# Outline: as §1
# [38] = target: Neu5Ac(a2-3)Gal(b1-3)GlcNAc(b1-2)Man(a1-3)[GlcNAc(b1-4)][Neu5Ac(a2-3)Gal(b1-3)GlcNAc(b1-2)Man(a1-6)]Man(b1-4)GlcNAc(b1-4)GlcNAc
# Outline: as §1
# [39] = target: Neu5Ac(a2-3)Gal(b1-3)GlcNAc(b1-2)Man(a1-3)[Neu5Ac(a2-3)Gal(b1-3)GlcNAc(b1-2)Man(a1-6)]Man(b1-4)GlcNAc(b1-4)GlcNAc
# Outline: as §1
# [40] = target: Neu5Ac(a2-3)Gal(b1-3)GlcNAc(b1-3)Gal(b1-3)GlcNAc
# Outline: as §1
# [41] = target: Neu5Ac(a2-3)Gal(b1-3)GlcNAc(b1-3)Gal(b1-4)GlcNAc
# Outline: as §1
# [42] = target: Neu5Ac(a2-3)Gal(b1-3)GlcNAc(b1-3)GalNAc
# Outline: as §1
# [43] = target: Neu5Ac(a2-3)Gal(b1-3)GlcNAc(b1-4)Gal(b1-4)Glc
# Outline: as §1
# [44] = target: Neu5Ac(a2-3)Gal(b1-3)GlcNAc(b1-6)GalNAc
# Outline: as §1
# [45] = target: Neu5Ac(a2-3)Gal(b1-3)GlcNAc6S
# Outline: as §1
binder,measurement,setting,value
B1,glycan array binding signal (z-score),[1],-0.135
same,glycan array binding signal (z-score),[2],-0.138
same,glycan array binding signal (z-score),[3],-0.117
same,glycan array binding signal (z-score),[4],-0.122
same,glycan array binding signal (z-score),[5],-0.135
same,glycan array binding signal (z-score),[6],-0.098
same,glycan array binding signal (z-score),[7],-0.136
same,glycan array binding signal (z-score),[8],-0.118
same,glycan array binding signal (z-score),[9],-0.142
same,glycan array binding signal (z-score),[10],-0.124
same,glycan array binding signal (z-score),[11],-0.129
same,glycan array binding signal (z-score),[12],5.28
same,glycan array binding signal (z-score),[13],9.44
same,glycan array binding signal (z-score),[14],4.43
same,glycan array binding signal (z-score),[15],7.03
same,glycan array binding signal (z-score),[16],6.69
same,glycan array binding signal (z-score),[17],3.1
same,glycan array binding signal (z-score),[18],5.79
same,glycan array binding signal (z-score),[19],6.04
same,glycan array binding signal (z-score),[20],13.3
same,glycan array binding signal (z-score),[21],-0.129
same,glycan array binding signal (z-score),[22],7.25
same,glycan array binding signal (z-score),[23],-0.12
same,glycan array binding signal (z-score),[24],-0.013
same,glycan array binding signal (z-score),[25],-0.131
same,glycan array binding signal (z-score),[26],-0.053
same,glycan array binding signal (z-score),[27],-0.127
same,glycan array binding signal (z-score),[28],-0.127
same,glycan array binding signal (z-score),[29],-0.132
same,glycan array binding signal (z-score),[30],-0.129
same,glycan array binding signal (z-score),[31],-0.139
same,glycan array binding signal (z-score),[32],-0.125
same,glycan array binding signal (z-score),[33],-0.135
same,glycan array binding signal (z-score),[34],-0.12
same,glycan array binding signal (z-score),[35],-0.141
same,glycan array binding signal (z-score),[36],-0.143
same,glycan array binding signal (z-score),[37],-0.082
same,glycan array binding signal (z-score),[38],-0.115
same,glycan array binding signal (z-score),[39],-0.096
same,glycan array binding signal (z-score),[40],-0.136
same,glycan array binding signal (z-score),[41],-0.131
same,glycan array binding signal (z-score),[42],-0.128
same,glycan array binding signal (z-score),[43],-0.114
same,glycan array binding signal (z-score),[44],-0.127
same,glycan array binding signal (z-score),[45],-0.117
